# Tests used:
# [1] = rat, tissue homogenate
# [2] = rat, tissue homogenate; remark: listed apart in the source
substance,measurement,setting,value
1-Beta-D-arabinofuranosyladenine [Vidarabine],T1/2 Liver homogenate,[1],15 min
same,T1/2 Intestinal homogenate,[2],3 min
